According to the RNAGym collection of RNA variant scans (doi:10.1093/nar/gkz1192):
The source gives no read counts; variants with many changes may rest on few reads.

B1: CPEB3 Ribozyme (parent)
chain: UAACAGGGGGCCACAGCAGAAGCGUUCACGUCGCAGCCCCUGUCAGAUUCUGGUGAAUCUGCGAAUUCUGCUGUAUAUCUC

Variants of: B1
Experiment: self-cleavage, relative activity (ratio to wild type); higher = more cleavage; in vitro, sequencing
In short: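 Libraries of CPEB3 self-cleaving ribozyme mutants came from rounds of error-prone PCR and carried barcodes, which DNA sequencing matched to variants. In vitro transcription used T7 RNA polymerase at 37°C for 5 hours, with a further 15 min in DNase I before EDTA stopped the reaction; the ribozymes cleaved during both steps. The RNA was reverse transcribed with template switching and sequenced on Illumina. Relative activity is the cleaved/total read fraction of a variant divided by that of the unmutated ribozyme, averaged over three batches with at least 5 reads.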

Variant	self-cleavage
UAACAGGGGGCCACAGCAGAAGCGUUCACCUCGCAGCCCCAGUCAGAUUCUGGUGAAUCUGCGAAUACUGCUGUAUAUCUC [G30C U41A U67A]	0.17
UAACAGGGGGCCACAGCAGAAGCGUUCACCUCGCAGCCCCUGUCUGAUUCUGGUGAAUCUGCGAAUUCCGCUGUAUAUCUC [G30C A45U U69C]	0.15
UAACAGGGGGCCACAGCAGAAGCGUUCAUGUCGCAGCCCCCGUCAGAUUCUGGUGAAUCUGCGAAUUCUGCUGUAUACCUC [C29U U41C U78C]	0.48
UAACAGGGGGCCACAGCAGAAGCGUUCAUGUCGCAGCCCCCGUCAGAUUCAGGUGAAUCUGCGAAUUCUGCCGUAUAUCUC [C29U U41C U51A U72C]	0.55
UAACAGGGGGCCACAGCAGAAGCGUUCACAUCGCAGCCCCUGUCAGUUUCUGGUGAAUCUGCGAAUUCUGCUGUAUGUCAC [G30A A47U A77G U80A]	0.19
UAACAGGGGGCCACAGCAGAAGCGUUCAUGUCGCACCCCCUGUCAGAUUCUUGUGAAUCUGCGAUUUCUGCUGUAUGUCUC [C29U G36C G52U A65U A77G]	0.14
UAACAGGGGGCCACAGCAGAAGCGUUCAUGUCGCAGCCCCUGUCAGAUUCUGGUGAAUCCGCGAAUUCUGCCGUAUAUCUC [C29U U60C U72C]	0.22
UAACAGGGGGCCACAGCAGAAGCGUUCAUGUCGCAGCCCCUGUGAGAUUCUGAUGAAUCUGCGAAUUCUGCUGUAUAUCCC [C29U C44G G53A U80C]	0.23
UAACAGGGGGCCACAGCAGAAGCGUUCACAUCGCUGCCCCUGUCAGACUCUGGUGAAUCUGCGAAUUCAGCUGUAUAUCUC [G30A A35U U48C U69A]	0.06
UAACAGGGGGCCACAGCAGAAGCGUUCACAUCGCAGGCCCUGUCAGAUUCUGGUGAAUCUGCGGAUUCUGCUGUAUAUCUC [G30A C37G A64G]	0.42
UAACAGGGGGCCACAGCAGAAGCGUUCAUGUCGCAGCCCCUGUCAGAUUCUGGCGAAUCCGCGAAUUCUGCUGUAUAUCUC [C29U U54C U60C]	0.14
UAACAGGGGGCCACAGCAGAAGCGUUCACAUCCCAGCCACUGUCAGACUCUGGUGAAUCUGCGAAUUCUGCUGCAUAUCUC [G30A G33C C39A U48C U74C]	0.11
UAACAGGGGGCCACAGCAGAAGCGUUCACAUCGCAGCCCCUGUCAGAUACUGGUGAGUCUGCGAAUUCUGCUGUAUAUCUC [G30A U49A A57G]	0.1
UAACAGGGGGCCACAGCAGAAGCGUUCACAUCGCAGCCCCUGUCAGAUCCUGGUGAAUCUGCGAAUUCUGCUGUAUUUCUC [G30A U49C A77U]	0.39
UAACAGGGGGCCACAGCAGAAGCGUUCACCUCGCAGCCCCUGUCAGAUCCUGGUGAAUCUGCGUAUUCUGCUGUAUAUCUC [G30C U49C A64U]	0.1
UAACAGGGGGCCACAGCAGAAGCGUUCAUGUCGCAGCCCCUGUCAGACUCAGGUGAAUCUGCGAAUACUGCUGUAUAUCUC [C29U U48C U51A U67A]	0.16
UAACAGGGGGCCACAGCAGAAGCGUUCAUGUCGCAGCCCCAGUCUGAUUAUGGUGAAUCCGCGAAUUCUGCUGUGUAUCUC [C29U U41A A45U C50A U60C A75G]	0.14

Variant	self-cleavage
UAACAGGGGGCCACAGCAGAAGCGUUCACAUAGCGGCCCCUGUCAGAUCCUGGUGAAUCUGCGAAUUCUGCUGUACAUCUC [G30A C32A A35G U49C U76C]	0.15
UAACAGGGGGCCACAGCAGAAGCGUUCAUGCCGCAACCCCUGGCAGAUUCUGGUGAAUCUGCGAAUUCUGCUGUAUAUUUC [C29U U31C G36A U43G C79U]	0.16
UAACAGGGGGCCACAGCAGAAGCGUUCACAUCGCAGCCCCUGUCAGAAUCUGGUGAAUCUCCGAAUUCUGCGGUAUAUCUC [G30A U48A G61C U72G]	0.15
UAACAGGGGGCCACAGCAGAAGCGUUCAUGUCGCAGCCCCUGUCAGAUUCUGGUGAAUCUGCGAAUUGUGCUGUAUAUCCC [C29U C68G U80C]	0.21
UAACAGGGGGCCACAGCAGAAGCGUUCAUGUCGCAGCCCCUGUCAGAUUCUGGCGAAUCUGCGAAUUCUGCUGUAUAUCCC [C29U U54C U80C]	0.85
UAACAGGGGGCCACAGCAGAAGCGUUCACAUCGCAGCCCCUGUCAGAUUCAGGUGAAUCCGCGAAUUCUGCUGUAUAUCUC [G30A U51A U60C]	0.42
UAACAGGGGGCCACAGCAGAAGCGUUCACAUCGCAGCCCCUGUCAGAUUCCGGUGAAUCCGCGAAUUCUGCUGUAUAUCUC [G30A U51C U60C]	0.41
UAACAGGGGGCCACAGCAGAAGCGUUCACAUCGCAGCCCCUGUCAGAUUCUGGUGAAUAUGCGAAUUCUGCAGUAUAUCUC [G30A C59A U72A]	0.11
UAACAGGGGGCCACAGCAGAAGCGUUCACUUCGCGGCCCCUGUCAGAUUCUGGUGAAUCUGCGAACUCUGCUGUAUAUCUC [G30U A35G U66C]	0.42
UAACAGGGGGCCACAGCAGAAGCGUUCACAUCGCAGCCCCUGUCUGAUUCUGGCGAAUCGGCGAAUUCUGCUGUAUACCUC [G30A A45U U54C U60G U78C]	0.07
UAACAGGGGGCCACAGCAGAAGCGUUCACAUCGCAGCCCUUGUCAGAGUCUGGUGAAUCUGCGAAUUCUGCUGUAUAUCAC [G30A C40U U48G U80A]	0.18
UAACAGGGGGCCACAGCAGAAGCGUUCAUGACGCUGCCCCUGUCAGAUUCUGGUGAAUCUGCGAAUUCAGCUGUAUAUCUC [C29U U31A A35U U69A]	0.16
UAACAGGGGGCCACAGCAGAAGCGUUCACCUCGCAGCCCCUGUCAGAUUCUGGUGUAUCUGCGAAUUCCGCUGUAUAUCUC [G30C A56U U69C]	0.12
UAACAGGGGGCCACAGCAGAAGCGUUCACAUCGCAGCCCCUGUCAGAUCCUGGUGAAGCUGCGAGUUCUGCUGUAUAUCUC [G30A U49C U58G A65G]	0.06
UAACAGGGGGCCACAGCAGAAGCGUUCAUGUCGCAGCCCCUGCCAGAUUCUGGUGGAUCUGCGAAUUCUGCUGUAUAUCUC [C29U U43C A56G]	0.09
UAACAGGGGGCCACAGCAGAAGCGUUCACUUCGCCGCCCCUGUCAGAUUCUGGUGAAUCCGCGAAUUCUGCCGUAUAUCUC [G30U A35C U60C U72C]	0.16
UAACAGGGGGCCACAGCAGAAGCGUUCAUGUCGCAGCCCCUGCCUGAUUCUGGUGAAUCUGCGAAUUCCGCCGUAUAUCUC [C29U U43C A45U U69C U72C]	0.1
